# Results taken from the supplement of paper PMC12217912.
# Some of the results follow. The full chains were built here from the parent and the listed change. Values near 0.05 are background.
# B1: TEV protease; numbered along this chain (parent)
# chain: MGESLFKGPRDYNPISSSICHLTNESDGHTTSLYGIGFGPFIITNKHLFRRNNGTLVVQSLHGVFKVKDTTTLQQHLVDGRDMIIIRMPKDFPPFPQKLKFREPQREERICLVTTNFQTKSMSSMVSDTSCTFPSGDGIFWKHWIQTKDGQCGSPLVSTRDGFIVGIHSASNFTNTNNYFTSVPKNFMELLTNQEAQQWVSGWRLNADSVLWGGHKVFMVKPEEPFQPVKEATQL
# Variants of: B1
# Test: raw area under fraction-flipped curve 0-4 h after induction (AUC4h, not background-subtracted), DNA-recorder readout of cleavage of the substrate (dimensionless); higher = more cleavage of the substrate by the protease variant
# Details: temperature: 34 °C; time window: 0-4 h after rhamnose induction
# Protocol: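 In vivo DNA recorder in E. coli TOP10(DE3) ΔrhaA at 34 °C. Each TEVp single-site mutant (parent TEVp 0) is paired with a single-site variant of the 7-mer TEVs (canonical ENLYFQ|S). The substrate sits between flexible linkers in a Bxb1-sfGFP-TEVs-SsrA fusion, so cleavage stabilises Bxb1 and speeds flipping of a recombination array, read by NGS. The value is the raw area under the fraction-flipped curve over 0-4 h after rhamnose induction (AUC4h), with ≥20 reads per time point. It is not background-subtracted; inactive controls average about 0.047.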
# 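Also: Bxb1 expression induced with 0.2% (w/v) L-rhamnose at OD600 near 0.5, cultures sampled hourly, flipped fraction per protease–substrate barcode pair counted by paired-end Illumina sequencing.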
Variant,area with substrate EALYFQS,area with substrate ECLYFQS,area with substrate EILYFQS,area with substrate EKLYFQS,area with substrate EMLYFQS,area with substrate EQLYFQS,area with substrate EWLYFQS,area with substrate EDLYFQS,area with substrate EELYFQS,area with substrate EFLYFQS,area with substrate EGLYFQS,area with substrate EHLYFQS,area with substrate ELLYFQS,area with substrate EPLYFQS,area with substrate ERLYFQS,area with substrate ESLYFQS,area with substrate ETLYFQS,area with substrate EVLYFQS,area with substrate EYLYFQS
V113F,0.072,0.0918,0.0809,0.102,0.121,0.124,0.0685,–,–,–,–,–,–,–,–,–,–,–,–
V113R,0.0814,–,0.0695,0.0673,0.0567,–,–,0.0795,0.0676,0.0625,0.0112,0.0287,0.0632,0.0583,0.065,0.0748,0.0808,0.0514,–
S127Q,0.113,0.108,0.077,0.0735,0.129,0.153,0.0962,–,–,0.0726,–,–,0.0937,0.12,–,0.106,–,0.0938,–
K90R,0.102,0.0966,–,0.102,–,0.0954,–,–,–,–,–,–,–,–,–,0.104,–,0.103,–
M122R,0.167,–,0.116,–,–,–,0.104,–,0.122,0.145,–,0.124,0.11,–,–,0.104,–,–,–
T147H,0.0604,–,0.0656,0.0434,0.0524,–,–,0.081,0.0565,0.0512,0.0649,0.063,–,0.0571,–,0.064,0.0872,0.0573,0.0564
E108F,0.0765,–,0.073,0.111,–,0.0614,–,–,0.068,–,0.0521,–,–,0.0553,–,0.0526,0.0396,–,–
F95C,0.0787,0.0949,–,0.0925,–,–,0.0939,–,–,–,–,0.104,–,–,–,–,–,–,–
F95K,0.0553,–,0.0414,0.0778,0.0775,–,–,–,–,–,–,0.0752,0.0794,0.0831,–,–,–,–,–
F95I,0.0976,0.0692,0.066,0.0827,0.0946,–,–,–,–,0.0917,0.0579,0.095,0.0765,0.114,0.0909,0.084,0.0987,0.0692,0.0592
I139C,0.114,0.122,0.114,0.13,–,0.153,–,–,–,0.108,0.123,0.0819,–,–,0.123,0.128,0.142,0.11,0.173
I139R,0.106,–,0.0798,0.105,–,0.0962,0.0782,–,–,–,–,–,0.0808,0.0888,0.0763,0.0712,–,0.0836,0.0971
K120S,0.107,0.119,0.0887,–,0.102,0.115,0.0678,–,–,–,0.093,0.125,0.114,0.134,0.0932,0.0886,0.12,0.113,0.125
D137I,0.0949,0.0945,0.119,0.0526,0.166,0.113,0.101,–,0.125,–,–,–,–,–,–,0.0924,–,0.108,0.106
T129N,0.135,–,0.0724,0.123,–,–,0.0928,–,0.121,–,0.0918,–,–,0.105,0.109,0.104,0.11,–,0.112
Q118R,0.108,0.134,–,0.0946,0.0932,0.124,–,–,–,0.103,0.0858,0.145,–,0.146,–,0.084,–,0.113,–
